# Reference: the supplement of paper PMC3334620
# The full ranking holds about 33,000 sequences; the median of “E-score (-0.5 to 0.5)” is about -0.01, and the highest 2% start at about 0.26. The list shows a part of the results.
# Biological target: Ste12 (UniProt P13574)
# Experiment: PBM E-score (8-mer binding enrichment) (E-score (-0.5 to 0.5)); higher = stronger / more preferred TF binding; most listed sequences are background and not binding sites
# Conditions: protein concentration: 200 nM; construct: GST-DNA-binding domain
# How it was run: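 Universal all-10-mer Agilent arrays, fresh or stripped once, were converted to double-stranded form by primer extension. GST-tagged yeast transcription factors from PURExpress in vitro transcription/translation, full-length or DNA-binding domain only, were applied at about 100-200 nM and detected with fluorescent anti-GST. After masliner normalisation, the Universal PBM Analysis Suite scored each ungapped eight-base word together with its reverse complement by E-score.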
row,Sequence,PBM E-score
1,CTGATAAA,0.144
2,ACTATATA,0.178
3,CCCGACCC,0.118
4,ACCGAGTC,-0.268
5,ACCGACAG,-0.0168
6,GGCGCCAA,0.0152
7,CGTCAGTC,-0.0824
8,AAGTTTCA,0.437
9,CGCACACA,-0.0256
10,GCTTGCTA,-0.0442
11,AGTTGAGA,0.0736
12,TATACTAA,-0.0408
13,ATATTCGG,0.0214
14,ATTTACGC,0.00034
15,GGCGGCCA,0.0282
16,AGAGTCAG,-0.0656
17,ATTGTGTA,0.274
18,AGCAGGAG,0.0105
19,AACAAAGG,0.188
20,CCGACTTA,-0.00776
21,CCACCACA,-0.0139
22,GTGTCGAA,0.0683
23,ACATATCT,0.0675
24,ACTTAGCC,-0.154
25,CGCTGTTA,0.124

row,Sequence,PBM E-score
1,AATGTGTG,0.177
2,CCTTGACA,-0.123
3,CTTTTTGA,0.176
4,AGTGGGTG,0.114
5,AACCCTGG,0.0636
6,AGGTACGA,-0.0493
7,GAAGCCAC,-0.108
8,AAACAGCT,0.0704
9,GAAGCAGA,-0.0485
10,GATGAATA,0.166
11,CATTGCCG,-0.0916
12,AGTAGACA,-0.143
13,CCCGTCAA,-0.146
14,CACACTTC,0.00873
15,AGATGATA,0.218
16,AACCTAAA,0.324
17,GCTACACA,-0.136
18,CTGGAAAC,0.14
19,ACCGGCAG,-0.125
20,AACGACTC,-0.153
21,CAGCGCGC,0.0555
22,CATTTTTA,0.0631
23,AGCTGCTA,-0.169
24,CACTAATC,-0.0304
25,GCTACGAC,-0.138

row,Sequence,PBM E-score
1,CACTTCTG,-0.194
2,TAGAGCCA,-0.0552
3,CATGAGTC,0.065
4,AATGAATC,0.16
5,CATCCATC,-0.154
6,GCGTCGAC,-0.0443
7,GTTCTTGA,-0.0164
8,ATTAGTAA,0.233
9,ATCGTTCG,-0.00358
10,GAGCCCTA,-0.0896
11,CACGAATC,0.195
12,CGTATACA,0.306
13,CCCTTACA,0.00527
14,CCGAGTGC,0.0654
15,AATCCTGA,0.105
16,CATGTTCA,-0.175
17,TGCTTTAA,0.199
18,GACGTTCA,-0.218
19,GCGGCCCA,0.151
20,CTATTCCC,-0.026
21,ATTGGGAA,0.0116
22,GGAAAACC,0.0776
23,GCCCGTCA,-0.179
24,CTACATTC,-0.0959
25,CTCGTCTC,-0.0177

row,Sequence,PBM E-score
1,ACAAGGAC,-0.129
2,CGTTATTA,0.0994
3,ACGTACGC,-0.149
4,CAAGCATC,-0.0619
5,GTAAGTTA,-0.1
6,ATCTGGTA,0.0775
7,AGACCTCC,-0.195
8,TATATATA,0.206
9,ATGCATGG,0.186
10,AGGGAATA,0.121
11,AGAACAGA,-0.0259
12,CTTTTGAC,0.0265
13,CGACCAAG,-0.244
14,TGGAAAAA,0.302
15,AGTACTAG,-0.0485
16,CATGCTCC,-0.254
17,AGTGCGGG,-0.212
18,ATTCCAGA,0.113
19,CATGGGGA,-0.0358
20,GATGTCAA,0.00597
21,TATCCGCA,0.135
22,GAGAATCA,-0.186
23,ATGTTCAC,0.0173
24,AGGCGCTG,-0.0252
25,CCGACATC,0.0762

row,Sequence,PBM E-score
1,GCCGTTTA,-0.132
2,CCTACGGA,-0.258
3,CGTTTGTA,0.17
4,GAAGTGGC,-0.159
5,CTCTTCAG,0.0202
6,CAACTGCA,-0.0177
7,AAATACAC,0.118
8,GGGCGACC,-0.137
9,GCGGAACA,0.0183
10,CAGCTAGG,-0.232
11,CACGTCTG,-0.138
12,ACGTCACA,-0.0545
13,CGATATAG,0.0562
14,CGGTGAAC,-0.0755
15,AAGACCGG,0.00993
16,GTCGTCCA,-0.0295
17,ACATATGA,0.0722
18,CGGACTCC,-0.0951
19,AGGGTTAG,-0.135
20,AACCTTGC,-0.0979
21,CTTTCAAC,0.0471
22,CCTCAGGC,-0.0588
23,ACCCTTAC,-0.0726
24,CGATAAAA,0.171
25,CAACATAA,0.189

row,Sequence,PBM E-score
1,CAAATCGG,0.109
2,GTGAGCAC,-0.148
3,CAGGTGCA,0.0488
4,AATGGGAC,-0.0804
5,CACGATCG,0.00354
6,CTTGAGGA,-0.147
7,ATTATGAC,0.0915
8,CGGGACCC,-0.0564
9,ACCCGTCA,-0.124
10,AGTGCAAA,0.101
11,CTTTGTTA,0.219
12,CACGCTCG,-0.0789
13,AGCGCCCC,-0.033
14,ACAAGAAC,0.175
15,GAGGTAAC,0.0397
16,CCGCCATC,-0.158
17,TATCTACA,0.0727
18,CTAATCAG,0.086
19,ACGGGGCT,-0.0518
20,CAGCACAA,-0.0375
21,GTTGATTA,0.0985
22,CTTCTATC,0.0372
23,CCGGCCTA,-0.0506
24,AAGCCAGC,0.00351
25,CCGCATTC,-0.0434

row,Sequence,PBM E-score
1,ACCACTCA,-0.127
2,CCTCGCCC,0.186
3,CAACCCTA,-0.099
4,ATAGTCGC,0.123
5,CGTGGCTC,-0.314
6,ATGTGAGA,0.187
7,ATTACTCG,0.0424
8,ATACTGTG,-0.135
9,ATCATTAC,0.152
10,GTAGCTTA,-0.064
11,CATCCTCC,-0.123
12,AGAACTTG,0.0625
13,AATGGCTG,-0.00793
14,CGCGGCCA,0.0408
15,GGCGTCAA,0.154
16,ACCCGCAT,0.191
17,ATTTTGTG,0.281
18,CCACAGCG,-0.175
19,GCCCGCCA,-0.0776
20,CAGCTTAG,-0.213
21,ATTTGCAC,-0.248
22,CTGTCGCA,0.0809
